IC50 is the fitted dose that halves viability relative to control wells, and lower means more sensitive; where the fit passes the top or lowest dose, that dose stands as a limit. AUC is the area under the same curve over the 256-fold range up to the top dose, as a fraction; values near 1 show little effect. Where the top dose is marked as inferred, it was calculated from the reported fits. Where an entry number is given, a second screen of the drug exists; the two often differ.

Our source for the AUC and IC50 values is the supplement of paper PMC4967469.

Compound in the first experiment: NC(=O)[C@@H](CCC(F)(F)F)N(Cc1ccc(-c2ncon2)cc1F)S(=O)(=O)c1ccc(Cl)cc1 [BMS-708163]
As to the kind of experiment: Viability of human cancer cell lines after 72 h of drug (GDSC screen). Conditions: screen: GDSC drug entry 205; top dose inferred. Here is the method:
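Human cancer cell lines in 384-well plates, medium with 10% serum, drug for 72 h over a 256-fold dose range (nine 2-fold or five 4-fold steps up to the top dose). Adherent lines were fixed and stained with the nucleic acid dye Syto60, suspension lines read with resazurin; signal relative to control wells, capped at 0 and 100%. One two-parameter sigmoid per drug and line, fitted in a mixed model over all curves with the slope shared within a line.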
By IC50 is commonly meant the concentration that gives 50% inhibition. With “M059J (glioma, adherent, top dose 10.24 µM)”, the AUC is 0.985 and the IC50 was over 10.2 µM.
On the same counts, the results for “MC116 (B-cell lymphoma, suspension, top dose 10.24 µM)” are 0.999 and over 10.2 µM.
“MC-CAR (haematopoietic neoplasm, suspension, top dose 10.24 µM)”: the AUC amounted to 0.964 and the IC50 is over 10.2 µM.
For “MC-IXC (neuroblastoma, adherent, top dose 10.24 µM)”, the AUC worked out at 0.996 and the IC50 is over 10.2 µM.
Turning to “MCF7 (breast, adherent, top dose 10.24 µM)”, the AUC is 0.986 and the IC50 is over 10.2 µM.
In the same order, the values of “MDA-MB-157 (breast, adherent, top dose 10.24 µM)” are 0.988 and over 10.2 µM.
On to “MDA-MB-175-VII (breast, adherent, top dose 10.24 µM)”, for which the AUC came out at 0.987 and the half-inhibitory concentration (IC50) was over 10.2 µM.
As to “MDA-MB-231 (breast, adherent, top dose 10.24 µM)”, the AUC was determined as 0.972 and the IC50 was over 10.2 µM.
For the cell line “MDA-MB-330 (breast, adherent, top dose 10.24 µM)”, the AUC was 0.985 and the IC50 is over 10.2 µM.
On the same counts, the results for “MDA-MB-361 (breast, adherent, top dose 10.24 µM)” are 0.989 and over 10.2 µM.
As for “MDA-MB-415 (breast, adherent, top dose 10.24 µM)”, the AUC was 0.983 and the half-maximal inhibitory concentration (IC50) is over 10.2 µM.
Turning to “MDA-MB-436 (breast, adherent, top dose 10.24 µM)”, the AUC is 0.983 and the IC50 was over 10.2 µM.
In the same order, the values of “MDA-MB-453 (breast, adherent, top dose 2.56 µM)” are 0.983 and over 2.56 µM.
In the case of “MDA-MB-468 (breast, adherent, top dose 10.24 µM)”, the AUC was 0.988 and the 50% inhibitory concentration (IC50) is over 10.2 µM.
As to “MDST8 (large intestine, adherent, top dose 10.24 µM)”, the AUC is 0.985 and the IC50 is over 10.2 µM.
In the same order, the values of “ME-1 (acute myeloid leukaemia, suspension, top dose 10.24 µM)” are 0.966 and over 10.2 µM.
On to “ME-180 (cervix, adherent, top dose 10.24 µM)”, for which the AUC was found to be 0.98 and the IC50 is over 10.2 µM.
Take “MEG-01 (chronic myeloid leukaemia, suspension, top dose 10.24 µM)”: the AUC was 0.988 and the IC50 is over 10.2 µM.
“MEL-JUSO (melanoma, adherent, top dose 10.24 µM)”: the AUC worked out at 0.978 and the IC50 was over 10.2 µM.
In the same order, the values of “MES-SA (uterus, adherent, top dose 10.24 µM)” are 0.992 and over 10.2 µM.
Turning to “MFE-280 (endometrium, adherent, top dose 10.24 µM)”, the AUC is 0.97 and the IC50 is over 10.2 µM.
As for “MFE-296 (endometrium, adherent, top dose 10.24 µM)”, the AUC came to 0.983 and the IC50 was over 10.2 µM.
In the same order, the values of “MFE-319 (endometrium, adherent, top dose 10.24 µM)” are 0.989 and over 10.2 µM.
Consider “MFH-ino (soft tissue, adherent, top dose 10.24 µM)”, for which the AUC stood at 0.983 and the IC50 was over 10.2 µM.
With “MFM-223 (breast, adherent, top dose 10.24 µM)”, the AUC worked out at 0.987 and the IC50 was over 10.2 µM.
With “MG-63 (osteosarcoma, adherent, top dose 10.24 µM)”, the AUC worked out at 0.984 and the IC50 is over 10.2 µM.
Regarding “MHH-ES-1 (Ewing sarcoma, adherent, top dose 10.24 µM)”, the AUC was determined as 0.984 and the IC50 was over 10.2 µM.
With “MHH-NB-11 (neuroblastoma, adherent, top dose 10.24 µM)”, the AUC was determined as 0.975 and the half-inhibitory concentration (IC50) is over 10.2 µM.
As for “MHH-PREB-1 (B-cell leukaemia, suspension, top dose 10.24 µM)”, the AUC was 0.989 and the IC50 was over 10.2 µM.
For the cell line “MIA-PaCa-2 (pancreas, adherent, top dose 10.24 µM)”, the AUC was 0.985 and the IC50 was over 10.2 µM.
For the cell line “MKN1 (stomach, adherent, top dose 10.24 µM)”, the AUC amounted to 0.986 and the IC50 is over 10.2 µM.
Regarding “MKN28 (stomach, adherent, top dose 10.24 µM)”, the AUC is 0.987 and the IC50 is over 10.2 µM.
On the same counts, the results for “MKN45 (stomach, adherent, top dose 10.24 µM)” are 0.982 and over 10.2 µM.
Take “ML-1 (thyroid, adherent, top dose 10.24 µM)”: the AUC was 0.984 and the IC50 was over 10.2 µM.
In the same order, the values of “ML-2 (acute myeloid leukaemia, suspension, top dose 10.24 µM)” are 0.99 and over 10.2 µM.
Regarding “MLMA (hairy cell leukaemia, semi-adherent, top dose 10.24 µM)”, the AUC was 0.981 and the IC50 is over 10.2 µM.
On the same counts, the results for “MMAC-SF (melanoma, adherent, top dose 10.24 µM)” are 0.987 and over 10.2 µM.
As to “MN-60 (B-cell leukaemia, suspension, top dose 10.24 µM)”, the AUC amounted to 0.986 and the half-maximal inhibitory concentration (IC50) is over 10.2 µM.
With “MOG-G-CCM (glioma, adherent, top dose 10.24 µM)”, the AUC turned out to be 0.982 and the IC50 is over 10.2 µM.
Turning to “MOG-G-UVW (glioma, adherent, top dose 10.24 µM)”, the AUC stood at 0.987 and the IC50 is over 10.2 µM.
With “MOLM-13 (acute myeloid leukaemia, suspension, top dose 10.24 µM)”, the AUC came out at 0.89 and the IC50 is over 10.2 µM.
Take “MOLP-8 (myeloma, suspension, top dose 10.24 µM)”: the AUC was determined as 0.987 and the IC50 is over 10.2 µM.
Take “MOLT-4 (lymphoblastic leukaemia, suspension, top dose 2.56 µM)”: the AUC was 0.989 and the IC50 was over 2.56 µM.
As for “MOLT-13 (T-cell lymphoblastic leukaemia, suspension, top dose 10.24 µM)”, the AUC turned out to be 0.897 and the IC50 was 9.98 µM.
Consider “MONO-MAC-6 (acute myeloid leukaemia, suspension, top dose 10.24 µM)”, for which the AUC worked out at 0.962 and the IC50 was over 10.2 µM.
As to “MPP-89 (mesothelioma, adherent, top dose 10.24 µM)”, the AUC was determined as 0.981 and the IC50 was over 10.2 µM.
For the cell line “MRK-nu-1 (breast, suspension, top dose 10.24 µM)”, the AUC came out at 0.99 and the IC50 is over 10.2 µM.
Consider “MS751 (cervix, adherent, top dose 10.24 µM)”, for which the AUC is 0.99 and the IC50 was over 10.2 µM.
In the case of “MS-1 (small cell lung carcinoma, suspension, top dose 10.24 µM)”, the AUC was found to be 0.976 and the 50% inhibitory concentration (IC50) was over 10.2 µM.
In the case of “MSTO-211H (mesothelioma, adherent, top dose 10.24 µM)”, the AUC turned out to be 0.991 and the half-inhibitory concentration (IC50) was over 10.2 µM.
On to “MV-4-11 (leukaemia, suspension, top dose 10.24 µM)”, for which the AUC came to 0.99 and the IC50 was over 10.2 µM.
With “MY-M12 (leukaemia, suspension, top dose 10.24 µM)”, the AUC is 0.965 and the IC50 was over 10.2 µM.
For the cell line “MZ1-PC (pancreas, adherent, top dose 10.24 µM)”, the AUC was 0.971 and the IC50 was over 10.2 µM.
For “MZ2-MEL (melanoma, adherent, top dose 10.24 µM)”, the AUC was determined as 0.96 and the IC50 was over 10.2 µM.
As to “MZ7-mel (melanoma, adherent, top dose 10.24 µM)”, the AUC was determined as 0.986 and the IC50 is over 10.2 µM.
In the case of “Mewo (melanoma, adherent, top dose 10.24 µM)”, the AUC turned out to be 0.978 and the IC50 is over 10.2 µM.
In the same order, the values of “Mo-T (hairy cell leukaemia, suspension, top dose 10.24 µM)” are 0.97 and over 10.2 µM.
On to “NALM-6 (B-cell leukaemia, suspension, top dose 10.24 µM)”, for which the AUC stood at 0.88 and the IC50 turned out to be 7.67 µM.

Still in this experiment, the particulars now being: top dose 5 µM; screen: GDSC drug entry 1072; top dose inferred.
With MEL-HO (melanoma, adherent), the AUC was found to be 0.924 and the IC50 was over 5 µM.
On to “MHH-CALL-2 (B-cell leukaemia, suspension)”, for which the AUC came to 0.995 and the IC50 is over 5 µM.
As to MKN7 (stomach, adherent), the AUC was found to be 0.963 and the IC50 was over 5 µM.
For MM1S (myeloma, suspension), the AUC was 0.943 and the IC50 was over 5 µM.
With “MOLM-16 (acute myeloid leukaemia, suspension)”, the AUC turned out to be 0.979 and the IC50 is over 5 µM.
In the case of “MOLT-13 (T-cell lymphoblastic leukaemia, suspension)”, the AUC is 0.905 and the IC50 is over 5 µM.
As for “MOLT-16 (T-cell lymphoblastic leukaemia, suspension)”, the AUC came out at 0.97 and the IC50 was over 5 µM.
In the case of Mewo (melanoma, adherent), the AUC is 0.96 and the IC50 was over 5 µM.
